Residue numbers refer to the chain shown, from its start. The list shows a part of the results.
B1: CUGCCGU (DNA:RNA)
RNA: GGGAGACCGGAAUUCAGAUUGUCCCUGCCGUUUAAAUCCCGUCGUAGCCACCA
DNA 1: CAATCTGAATTCCGGTCTCCC
DNA 2: TGGTGGCTACGACGGGATT
B2: GCUAAUU (DNA:RNA)
RNA: B1 RNA with C25G, U26C, G27U, C28A, C29A, G30U
DNA 1: CAATCTGAATTCCGGTCTCCC
DNA 2: TGGTGGCTACGACGGGATT
B3: AUAUGCG (DNA:RNA)
RNA: B1 RNA with C25A, G27A, C28U, C29G, G30C, U31G
DNA 1: CAATCTGAATTCCGGTCTCCC
DNA 2: TGGTGGCTACGACGGGATT
B4: GCGUAAG (DNA:RNA)
RNA: B1 RNA with C25G, U26C, C28U, C29A, G30A, U31G
DNA 1: CAATCTGAATTCCGGTCTCCC
DNA 2: TGGTGGCTACGACGGGATT
B5: CAGGGAG (DNA:RNA)
RNA: B1 RNA with U26A, C28G, C29G, G30A, U31G
DNA 1: CAATCTGAATTCCGGTCTCCC
DNA 2: TGGTGGCTACGACGGGATT
B6: GAGGACG (DNA:RNA)
RNA: B1 RNA with C25G, U26A, C28G, C29A, G30C, U31G
DNA 1: CAATCTGAATTCCGGTCTCCC
DNA 2: TGGTGGCTACGACGGGATT
B7: UCCUUAA (DNA:RNA)
RNA: GGGAGACCGGAAUUCAGAUUGUCCUCCUUAAUUAAAUCCCGUCGUAGCCACCA
DNA 1: CAATCTGAATTCCGGTCTCCC
DNA 2: TGGTGGCTACGACGGGATT
B8: GAAUGAC (DNA:RNA)
RNA: B7 RNA with U25G, C26A, C27A, U29G, A31C
DNA 1: CAATCTGAATTCCGGTCTCCC
DNA 2: TGGTGGCTACGACGGGATT
B9: AAUAGAA (DNA:RNA)
RNA: B7 RNA with U25A, C26A, C27U, U28A, U29G
DNA 1: CAATCTGAATTCCGGTCTCCC
DNA 2: TGGTGGCTACGACGGGATT
B10: GGGCUUA (DNA:RNA)
RNA: B1 RNA with C25G, U26G, C29U, G30U, U31A
DNA 1: CAATCTGAATTCCGGTCTCCC
DNA 2: TGGTGGCTACGACGGGATT
B11: GGUGUAA (DNA:RNA)
RNA: B7 RNA with U25G, C26G, C27U, U28G
DNA 1: CAATCTGAATTCCGGTCTCCC
DNA 2: TGGTGGCTACGACGGGATT
B12: CGACGCA (DNA:RNA)
RNA: B1 RNA with U26G, G27A, C29G, G30C, U31A
DNA 1: CAATCTGAATTCCGGTCTCCC
DNA 2: TGGTGGCTACGACGGGATT
B13: GAACGCA (DNA:RNA)
RNA: B1 RNA with C25G, U26A, G27A, C29G, G30C, U31A
DNA 1: CAATCTGAATTCCGGTCTCCC
DNA 2: TGGTGGCTACGACGGGATT
B14: UUUGUGG (DNA:RNA)
RNA: B1 RNA with C25U, G27U, C28G, C29U, U31G
DNA 1: CAATCTGAATTCCGGTCTCCC
DNA 2: TGGTGGCTACGACGGGATT
B15: GGGAUUU (DNA:RNA)
RNA: B1 RNA with C25G, U26G, C28A, C29U, G30U
DNA 1: CAATCTGAATTCCGGTCTCCC
DNA 2: TGGTGGCTACGACGGGATT
B16: UCGUGAG (DNA:RNA)
RNA: B7 RNA with C27G, U29G, A31G
DNA 1: CAATCTGAATTCCGGTCTCCC
DNA 2: TGGTGGCTACGACGGGATT
B17: GGUGCGC (DNA:RNA)
RNA: B1 RNA with C25G, U26G, G27U, C28G, U31C
DNA 1: CAATCTGAATTCCGGTCTCCC
DNA 2: TGGTGGCTACGACGGGATT
B18: CGCGGGG (DNA:RNA)
RNA: B1 RNA with U26G, G27C, C28G, C29G, U31G
DNA 1: CAATCTGAATTCCGGTCTCCC
DNA 2: TGGTGGCTACGACGGGATT
B19: CAAGUAU (DNA:RNA)
RNA: B1 RNA with U26A, G27A, C28G, C29U, G30A
DNA 1: CAATCTGAATTCCGGTCTCCC
DNA 2: TGGTGGCTACGACGGGATT
B20: GCCGCGG (DNA:RNA)
RNA: B1 RNA with C25G, U26C, G27C, C28G, U31G
DNA 1: CAATCTGAATTCCGGTCTCCC
DNA 2: TGGTGGCTACGACGGGATT
B21: AUCGCGU (DNA:RNA)
RNA: B1 RNA with C25A, G27C, C28G
DNA 1: CAATCTGAATTCCGGTCTCCC
DNA 2: TGGTGGCTACGACGGGATT
B22: UGGACGC (DNA:RNA)
RNA: B1 RNA with C25U, U26G, C28A, U31C
DNA 1: CAATCTGAATTCCGGTCTCCC
DNA 2: TGGTGGCTACGACGGGATT
B23: AGACCUU (DNA:RNA)
RNA: B1 RNA with C25A, U26G, G27A, G30U
DNA 1: CAATCTGAATTCCGGTCTCCC
DNA 2: TGGTGGCTACGACGGGATT
B24: AUCAUAG (DNA:RNA)
RNA: B7 RNA with U25A, C26U, U28A, A31G
DNA 1: CAATCTGAATTCCGGTCTCCC
DNA 2: TGGTGGCTACGACGGGATT
B25: UUAAAGA (DNA:RNA)
RNA: B1 RNA with C25U, G27A, C28A, C29A, U31A
DNA 1: CAATCTGAATTCCGGTCTCCC
DNA 2: TGGTGGCTACGACGGGATT
B26: GGAGUGU (DNA:RNA)
RNA: B1 RNA with C25G, U26G, G27A, C28G, C29U
DNA 1: CAATCTGAATTCCGGTCTCCC
DNA 2: TGGTGGCTACGACGGGATT
B27: AACCCGU (DNA:RNA)
RNA: B1 RNA with C25A, U26A, G27C
DNA 1: CAATCTGAATTCCGGTCTCCC
DNA 2: TGGTGGCTACGACGGGATT
B28: CCCUUUG (DNA:RNA)
RNA: B7 RNA with U25C, A30U, A31G
DNA 1: CAATCTGAATTCCGGTCTCCC
DNA 2: TGGTGGCTACGACGGGATT
B29: GCGAUUC (DNA:RNA)
RNA: B7 RNA with U25G, C27G, U28A, A30U, A31C
DNA 1: CAATCTGAATTCCGGTCTCCC
DNA 2: TGGTGGCTACGACGGGATT
B30: CAUUCCU (DNA:RNA)
RNA: B1 RNA with U26A, G27U, C28U, G30C
DNA 1: CAATCTGAATTCCGGTCTCCC
DNA 2: TGGTGGCTACGACGGGATT
B31: AUUGGAG (DNA:RNA)
RNA: B1 RNA with C25A, G27U, C28G, C29G, G30A, U31G
DNA 1: CAATCTGAATTCCGGTCTCCC
DNA 2: TGGTGGCTACGACGGGATT

biological target: T1, RBFOX1 RRM (Homo sapiens, UniProt Q9NWB1 109-208); test: EMSA; HiTS-Eq, 1 nM pool, 10 min; buffer printed only for the single-RNA assays: 10 mM Tris pH 7.5, 150 mM NaCl, 3.4 mM EDTA, 0.001% NP-40, 30 C; conditions: tags: His6 N-terminal (pET28a); label: 5' 32P
T1 sequence: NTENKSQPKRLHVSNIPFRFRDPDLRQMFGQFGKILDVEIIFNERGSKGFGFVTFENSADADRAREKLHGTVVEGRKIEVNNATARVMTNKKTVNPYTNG
Method in brief: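 Purified RbFox RRM (wild type or mutant) was equilibrated for 10 min in 50 µL with 1 nM of a 5′-radiolabelled pool of RNA with 7 randomized nucleotides, its flanks annealed to DNA oligonucleotides, across increasing protein concentrations. Free RNA was separated by 8% native PAGE, excised, reverse-transcribed, PCR-barcoded and sequenced on an Illumina HiSeq 2500. Relative association constants came from read-count changes of each variant against the control reaction, normalised to the cognate motif.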

Binder | binding signal
B1 | 0.0136 KA relative to UGCAUGU
B2 | 0.00776 KA relative to UGCAUGU
B3 | 0.0104 KA relative to UGCAUGU
B4 | 0.0113 KA relative to UGCAUGU
B5 | 0.0155 KA relative to UGCAUGU
B6 | 0.00734 KA relative to UGCAUGU
B7 | 0.00377 KA relative to UGCAUGU
B8 | 0.0186 KA relative to UGCAUGU
B9 | 0.00406 KA relative to UGCAUGU
B10 | 0.00939 KA relative to UGCAUGU
B11 | 0.00368 KA relative to UGCAUGU
B12 | 0.011 KA relative to UGCAUGU
B13 | 0.00992 KA relative to UGCAUGU
B14 | 0.0141 KA relative to UGCAUGU
B15 | 0.0372 KA relative to UGCAUGU
B16 | 0.00953 KA relative to UGCAUGU

Binder | binding signal
B17 | 0.0208 KA relative to UGCAUGU
B18 | 0.00721 KA relative to UGCAUGU
B19 | 0.000749 KA relative to UGCAUGU
B20 | 0.0211 KA relative to UGCAUGU
B21 | 0.00884 KA relative to UGCAUGU
B22 | 0.0263 KA relative to UGCAUGU
B23 | 0.00425 KA relative to UGCAUGU
B24 | 0.00236 KA relative to UGCAUGU
B25 | 0.00524 KA relative to UGCAUGU
B26 | 0.0229 KA relative to UGCAUGU
B27 | 0.000888 KA relative to UGCAUGU
B28 | 0.00727 KA relative to UGCAUGU
B29 | 0.0142 KA relative to UGCAUGU
B30 | 0.00308 KA relative to UGCAUGU
B31 | 0.00407 KA relative to UGCAUGU
